Source: PubChem BioAssay AID1347165 (National Center for Advancing Translational Sciences (NCATS), 2019)
“And” between values parts separate entries of the source, which are not always exact repeats. Identical values can stand only once. Hit rate of the full screen: of about 220,000 compounds, about 5,700 (2.6%) were called active. This list was built around the results that the source calls inconclusive (neither active nor inactive); the mix of calls is not that of the screen. The call rests on the fitted dose curve; in most records, active means well fitted inhibition curve with a large enough effect; inconclusive means small, poorly fitted or top-dose-only effect; inactive means no such curve, though single readings can be large or run the other way. Potencies beside an inconclusive call are fits to weak or partial responses and may not hold up.

Target: Lysine-specific demethylase 5B (Homo sapiens) (UniProt Q9UGL1)
Sequence of UniProt Q9UGL1 (Q9UGL1 whole entry, looked up): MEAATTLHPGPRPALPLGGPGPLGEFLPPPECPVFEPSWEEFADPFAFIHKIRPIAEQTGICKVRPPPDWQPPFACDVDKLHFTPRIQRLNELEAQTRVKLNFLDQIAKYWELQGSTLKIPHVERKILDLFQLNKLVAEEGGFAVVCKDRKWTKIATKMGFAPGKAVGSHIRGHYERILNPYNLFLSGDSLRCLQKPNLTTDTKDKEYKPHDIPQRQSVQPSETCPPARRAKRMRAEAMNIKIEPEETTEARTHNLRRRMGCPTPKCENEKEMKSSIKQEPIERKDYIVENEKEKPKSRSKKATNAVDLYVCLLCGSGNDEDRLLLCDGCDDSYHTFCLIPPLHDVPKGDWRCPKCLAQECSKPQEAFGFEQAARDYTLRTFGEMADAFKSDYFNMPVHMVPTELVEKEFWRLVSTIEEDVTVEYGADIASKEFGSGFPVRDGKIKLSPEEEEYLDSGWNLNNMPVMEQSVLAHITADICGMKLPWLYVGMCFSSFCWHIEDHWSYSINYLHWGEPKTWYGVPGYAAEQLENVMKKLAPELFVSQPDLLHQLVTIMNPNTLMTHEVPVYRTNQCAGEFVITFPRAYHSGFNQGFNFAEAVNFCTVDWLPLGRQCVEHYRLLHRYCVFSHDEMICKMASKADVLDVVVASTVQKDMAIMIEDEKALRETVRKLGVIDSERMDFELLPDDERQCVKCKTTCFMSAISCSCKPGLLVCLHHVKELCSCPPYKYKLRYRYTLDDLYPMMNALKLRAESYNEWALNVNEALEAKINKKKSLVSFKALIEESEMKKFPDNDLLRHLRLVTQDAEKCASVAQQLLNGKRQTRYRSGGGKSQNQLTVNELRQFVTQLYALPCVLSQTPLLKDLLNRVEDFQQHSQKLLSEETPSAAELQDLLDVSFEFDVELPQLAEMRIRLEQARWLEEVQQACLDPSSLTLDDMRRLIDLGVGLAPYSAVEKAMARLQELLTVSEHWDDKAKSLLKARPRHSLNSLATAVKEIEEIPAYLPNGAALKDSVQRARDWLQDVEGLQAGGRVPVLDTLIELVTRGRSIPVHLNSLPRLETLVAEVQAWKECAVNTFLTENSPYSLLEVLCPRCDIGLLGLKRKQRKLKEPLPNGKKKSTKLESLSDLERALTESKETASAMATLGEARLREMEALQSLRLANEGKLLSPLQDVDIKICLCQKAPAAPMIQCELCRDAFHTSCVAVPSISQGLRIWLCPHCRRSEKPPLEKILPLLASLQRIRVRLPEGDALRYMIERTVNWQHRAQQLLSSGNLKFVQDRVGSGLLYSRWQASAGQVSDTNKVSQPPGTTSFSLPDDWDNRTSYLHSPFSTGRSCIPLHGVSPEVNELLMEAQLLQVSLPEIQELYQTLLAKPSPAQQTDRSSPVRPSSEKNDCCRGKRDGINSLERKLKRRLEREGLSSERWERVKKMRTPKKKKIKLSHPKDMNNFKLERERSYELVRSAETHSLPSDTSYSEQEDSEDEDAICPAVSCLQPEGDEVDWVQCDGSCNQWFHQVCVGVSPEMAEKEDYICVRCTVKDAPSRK
Experiment: Primary screen for KDM5B Histone Demethylases FDH-coupled qHTS; further: nearly all actives have a fitted effect of over 70% in size; on activity change, negative = inhibition: 0% is about no effect
Details: FDH-coupled NADH fluorescence (FDH is formaldehyde dehydrogenase); activity change, negative = inhibition: at 57.7 µM (top of the series) unless noted
Method in brief: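 Inhibition is measured as reduced NADH fluorescence generation from FDH coupling to formaldehyde release. Truncated KDM5BΔAP at 200 nM final acts on H3K4me3 peptide (12.5 µM in substrate mix) in pH 7.5 HEPES buffer with Tween-20, 30 min, room temperature.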
Potency means the concentration at half of the fitted maximal effect; tags describe the fitted curve by direction and shape.

SMILES	activity change, negative = inhibition	Potency
COc1cccc(NC(=O)C2CCN(C(=O)N3CC4CC(C3)[C@H]3CCCC(=O)N3C4)CC2)c1 (some centres undefined)	inactive: -28.7%	–
O=C(COc1ccccc1)Nc1cccc(-c2cn3cccnc3n2)c1	–	inconclusive: 31.6 µM [inhibitor, partial curve, poor fit]
CCOc1ccc(N(C)C(CNS(=O)(=O)c2ccccc2)c2ccccc2)cc1 (centres undefined)	–	inconclusive: 25.1 µM [inhibitor, partial curve, poor fit]
Cc1ccc(C(=O)C(Cl)c2ccc(C)cc2)cc1 (centres undefined)	inactive: 18.5%	–
COc1ccc(C(=O)N2CC[C@@H](CC(=O)O)[C@@H](CCN(CCN3CCOCC3)c3ccccc3)C2)cc1	–	inconclusive: 15.8 µM [inhibitor, partial curve, poor fit]
COCc1nc(C2CC(N)C2)cc(N2CCN(S(=O)(=O)N(C)C)CC2)n1 (centres undefined)	–	inconclusive: 8.91 µM [inhibitor, partial curve, poor fit]
Cc1c(C(=O)Nc2ccc(F)cc2)sc2nc[nH]c(=O)c12	inconclusive: -39.6% [inhibitor]	–
CC(C)OCCCNC(=O)C1CCCN(c2nc3ncccc3o2)C1 (centres undefined)	–	inconclusive: 28.2 µM [inhibitor, partial curve, poor fit]
CC(C)CCn1c(=O)c2sccc2n2c(CCCC(=O)NCc3ccc(F)cc3)nnc12	–	inconclusive: 35.5 µM [inhibitor, single point]
N#Cc1ccc(CN2CCCCCCNC(=O)[C@@H]3C[C@@H](C(=O)NCCc4cnc[nH]4)C[C@@H]32)cc1	–	active: 20 µM
c1ccc(CN2CCC(NC3CCCC3)CC2)cc1	–	inconclusive: 12.6 µM [inhibitor, partial curve, poor fit]
Cn1c2[n+](c3ccc(Cl)cc3c1=O)Cc1ccccc1-2	–	inconclusive: 31.6 µM [inhibitor, partial curve, poor fit]
CC(C)CCNC(=O)C12CC3CC(C1)CC(c1ccccc1)(C3)C2	inactive: -1.61%	–
NC(=O)c1cc(-c2ccccc2F)cc2c1OCCN2Cc1cccnc1	–	active: 35.5 µM
COc1cccc(C2(c3cccc(OC)c3)CC2C(=O)O)c1 (centres undefined)	inactive: -2.01%	–
Cc1ccc(CNC(=O)CN(c2ccc(C)cc2)S(=O)(=O)c2c(C)nn(C)c2C)cc1	–	inconclusive: 2.82 µM [inhibitor, full curve, poor fit]
CN1C(=O)CCC2(CNC(=O)c3ccoc3)CCC=C12 (centres undefined)	inactive: -13.5%	–
COC(=O)c1cnn2c(C)c(Cc3c(C)cc(C)cc3C)c(C)nc12	–	inconclusive: 3.16 µM [inhibitor, partial curve, poor fit]
CCC1CN(C(=O)Nc2cccc3c2CCCC3)c2ccccc2O1 (centres undefined)	–	inconclusive: 2 µM [inhibitor, partial curve, poor fit]
CC(C)CCNC(=O)C1CC(=O)N(c2n[nH]c3cccc(F)c23)C1 (centres undefined)	inactive: -22.3%	–
O=C(Nc1ccc(F)cc1F)c1cc2nc(-c3ccco3)cc(C(F)(F)Cl)n2n1	–	inconclusive: 28.2 µM [inhibitor, partial curve, poor fit]
CCCCn1nc(C(=O)N(C)C2CCS(=O)(=O)C2)c2ccccc2c1=O (centres undefined)	inactive: 21.9%	–

SMILES	activity change, negative = inhibition	Potency
Cc1ccc(-c2cc(C(=O)O)c3cc(Cl)ccc3n2)o1	–	inconclusive: 39.8 µM [inhibitor, partial curve, poor fit] and inconclusive: 25.1 µM [inhibitor, partial curve, poor fit]
COc1ccc(-c2cc3nc4c(c(=O)n3[nH]2)CN(C(=O)Cc2ccccc2)CC4)cc1	–	active: 28.2 µM
N#CC(C#N)=Cc1ccc(-c2cccc(C(=O)O)c2)o1	–	inconclusive: 22.4 µM [inhibitor, partial curve, poor fit]
CCN(C(=O)Cn1nnc2sc(-c3ccccc3)cc2c1=O)c1cccc(C)c1	–	inconclusive: 25.1 µM [inhibitor, partial curve, poor fit]
COC(=O)c1c(NC(=O)C2CCCCC2)sc(C(=O)N(C)C)c1C	inactive: -17.2%	–
O=C(Nc1cccc(Cl)c1)c1ccc(F)c(S(=O)(=O)N2CCC3(CC2)OCCO3)c1	–	inconclusive: 35.5 µM [inhibitor, single point]
CCN(CC)C(=O)c1cc(-c2ccc(Cl)cc2)on1	–	inconclusive: 15.8 µM [inhibitor, partial curve, poor fit]
FC(F)(F)c1cc(Oc2ccc(Cl)cc2)ncc1-c1nnc(-c2ccc(Cl)cc2)o1	–	inconclusive: 28.2 µM [inhibitor, partial curve, poor fit]
CC(C)n1cc2cc(C(=O)NCCc3ccncc3)sc2c1	–	inconclusive: 15.8 µM [inhibitor, partial curve]
Cn1c(Cn2cccn2)nnc1C1CCCN(C(=O)Cc2cccnc2)C1 (centres undefined)	–	inconclusive: 0.631 µM [inhibitor, full curve, poor fit]
CCN1CCCC2(Cc3ccccc3CN(C(=O)c3ccccc3)C2)C1 (centres undefined)	–	inconclusive: 89.1 µM [inhibitor, partial curve, poor fit]
O=C(NC1CCCCC1)N1Cc2[nH]cnc2C[C@H]1c1nc(-c2ccncc2)no1	–	inconclusive: 5.01 µM [inhibitor, full curve]
CCC(C)NC(=O)CSc1nc2n[nH]c(C)c2c(=N)n1-c1ccc(C)c(Cl)c1 (centres undefined)	–	inconclusive: 44.7 µM [inhibitor, single point]
CNc1snc(C)c1C(=O)N(C)CCOc1ccccc1Cl	inactive: 20.1%	–
N#C/C(=C\c1c(N2CCN(c3ccccc3)CC2)nc2ccccn2c1=O)C(N)=O	–	inconclusive: 25.1 µM [inhibitor, partial curve, poor fit]
O=C(NCCCCc1ccccc1)c1cc(=O)[nH]c2ccccc12	inactive: -11.5%	–
CCc1noc(-c2cccn3c(CNC(=O)c4ccc(OC)cc4)nnc23)n1	–	inconclusive: 25.1 µM [inhibitor, partial curve]
CCn1cc(S(=O)(=O)N2CCC3(CC2)CN(C2CCC2)CC3COC)cn1 (centres undefined)	–	inconclusive: 31.6 µM [inhibitor, partial curve, poor fit]
O=C(CN1CCn2nc(C(O)CO)cc2C1)Nc1ccc(Cl)cn1 (centres undefined)	–	inconclusive: 20 µM [inhibitor, partial curve, poor fit]
CN(CC(=O)NC(=O)NC1CC1)CC(=O)N(C)C	inactive: 14.7%	–
Cn1c(=O)c2[nH]c(N3CCC(C(=O)O)CC3)nc2n(C)c1=O	inactive: -28.3%	–
c1ccc(CN2C[C@@H]3CC[C@H](C2)N(Cc2ccc4nsnc4c2)C3)nc1	–	inconclusive: 12.6 µM [inhibitor, partial curve, poor fit]

SMILES	activity change, negative = inhibition	Potency
CCC(CC)c1nnc(NC(=O)c2cccc(S(=O)(=O)N(C)c3cccc(Cl)c3)c2)s1	inactive: -15.9%	–
O=C1N(Cc2ccc(F)cc2)C[C@H]2CN(Cc3ccc(C(F)(F)F)cc3)CCN12	–	inconclusive: 35.5 µM [inhibitor, single point]
Cc1cc(N2CCN(CCO)CC2)n2nc(C)c(-c3ccc(F)cc3)c2n1	inactive: 6.06%	–
COc1cc2ccccc2cc1C(=O)N1CCN(c2nc3ccc(F)cc3s2)CC1	–	inconclusive: 31.6 µM [inhibitor, partial curve, poor fit]
CC(C)c1ccc(-c2nc(C3CC(=O)N(c4ccc(F)cc4)C3)no2)cc1 (centres undefined)	inactive: 12.2%	–
O=C(C1CCCC1)N1CC2(CCCN2CC2CC2)Cc2ccccc21 (centres undefined)	–	inconclusive: 89.1 µM [inhibitor, single point]
CCCc1cc(=O)oc2c(C)c(OCC(=O)c3ccccc3)ccc12	inactive: 15%	–
CCc1ccc(CNCc2c(C(=O)O)n(Cc3ccc(F)cc3Cl)c3cc(OC)ccc23)cc1	–	inconclusive: 1.58 µM [inhibitor, full curve, poor fit]
OCC1CN(c2ncccn2)CC12CCN(Cc1ccncc1)CC2 (centres undefined)	–	active: 22.4 µM
COc1ccc(C(=O)NC(=S)Nc2ccc(N3CCN(C(C)=O)CC3)cc2)cc1[N+](=O)[O-]	–	inconclusive: 31.6 µM [inhibitor, partial curve, poor fit]
Cc1c(CC(=O)N2CCCC2)c(=O)oc2cc(O)ccc12	–	inconclusive: 10 µM [inhibitor, partial curve, poor fit]
Cc1cc(C)n(CCNC(=O)c2cn(CCN3CCNCC3)nn2)c(=O)n1	–	inconclusive: 14.1 µM [inhibitor, partial curve]
O=C(c1cc2cccnn2n1)N1CCOCC1	–	active: 31.6 µM
O=C(CC12CC3CC(CC(C3)C1)C2)Nc1ccc(-c2nc3ncccc3o2)cc1	–	inconclusive: 31.6 µM [inhibitor, partial curve, poor fit]
Cc1ccc2nc(NCc3ccc(F)cc3)c3nncn3c2c1	–	inconclusive: 25.1 µM [inhibitor, single point]
O=C(Nc1ccc2oc(-c3ccc(F)cc3)cc(=O)c2c1)c1ccco1	–	inconclusive: 14.1 µM [inhibitor, partial curve, poor fit]
Cc1cccc(-n2ncc3c(N4CCN(c5ccccc5)CC4)ncnc32)c1	–	inconclusive: 1.26 µM [inhibitor, partial curve, poor fit]
CCN(CC)c1ccc(NC(=O)Cn2nc(C)n3cccc3c2=O)c(C)c1	–	inconclusive: 25.1 µM [inhibitor, partial curve, poor fit]
CC1(CNc2ccccc2)COc2ccc(C(=O)NCCc3ccccn3)cc2N1 (centres undefined)	–	active: 22.4 µM
COCC(C)NC(=O)CSc1nc(-c2ccc(OC)c(OC)c2)cc(C(F)(F)F)n1 (centres undefined)	–	inconclusive: 28.2 µM [inhibitor, partial curve, poor fit]
